Measurements published in patent US20230272055A1, “ANTI-MUTANT CALRETICULIN (CALR) ANTIBODIES AND USES THEREOF” (Incyte Corporation, priority 2021, published 2023).
Numbering of substitutions follows the chain as printed.

B1: 172 (antibody)
heavy: EVQLVQSGAEVKKPGASVKVSCKVSGYTLTELSMQWVRQAPGKGLEWMGGFDPDSGETMYAEKFQGRLTVTEDTSTDTVYMELRSLTSEDTALYFCATSPGYDFFDYWGQGTLVTVSSASTKGPSVFPLAPSSKSTSGGTAALGCLVKDYFPEPVTVSWNSGALTSGVHTFPAVLQSSGLYSLSSVVTVPSSSLGTQTYICNVNHKPSNTKVDKRV[omitted - human IgG1 Fc with changes]
light: SYVLTQPPSVSVAPGQTARITCGGSDIGDEIVHWYQQKPGQAPVLVVYDDSDRPSGIPERFSGSNSGNTATLTISRAQAGDEADYYCQVWDSSSDHLIFGGGTKLTVLGQPKAAPSVTLFPPSSEELQANKATLVCLISDFYPGAVTVAWKADSSPVKAGVETTTPSKQSNNKYAASSYLSLTPEQWKSHRSYSCQVTHEGSTVEKTVAPTECS
B2: 181 (antibody)
heavy: EVQLVQSGAEVKKPGASVKVSCKVSGYTLTELSMQWVRQAPGKGLEWMGGFDPDAGETMYAEKFQGRLTVTEDTSTDTVYMELRSLTSEDTALYFCATSPGYDFFDYWGQGTLVTVSSASTKGPSVFPLAPSSKSTSGGTAALGCLVKDYFPEPVTVSWNSGALTSGVHTFPAVLQSSGLYSLSSVVTVPSSSLGTQTYICNVNHKPSNTKVDKRV[omitted - human IgG1 Fc with changes]
light: B1 light with A77V, Q78E
B3: 136 (antibody)
heavy: EVQLVQSGAEVKKPGASVKVSCKVSGYTLTELSMQWVRQAPGKGLEWMGGFDPDSGETMYAEKFQGRLTVTEDTSTDTVYMELRSLTSEDTALYFCATSPGYDFFDYWGQGTLVTVSSASTKGPSVFPLAPSSKSTSGGTAALGCLVKDYFPEPVTVSWNSGALTSGVHTFPAVLQSSGLYSLSSVVTVPSSSLGTQTYICNVNHKPSNTKVDKRV[omitted - human IgG1 Fc with changes]
light: B1 light with Q16K, S25D, D26N, D29S, E30K, I31S, A77V, Q78E, S94N, H96L
B4: 142 (antibody)
heavy: EVQLVQSGAEVKKPGASVKVSCKVSGYTLTELSMQWVRQAPGKGLEWMGGFDPDEGETMYAEKFQGRLTVTEDTSTDTVYMELSSLRSEDTAVYFCATSPGYDFFDYWGQGTLVTVSSASTKGPSVFPLAPSSKSTSGGTAALGCLVKDYFPEPVTVSWNSGALTSGVHTFPAVLQSSGLYSLSSVVTVPSSSLGTQTYICNVNHKPSNTKVDKRV[omitted - human IgG1 Fc with changes]
light: B1 light with Q16K, S25D, D26N, D29S, E30K, I31S, A77V, Q78E, S94N, H96L
B5: 135 (antibody)
heavy: EVQLVQSGAEVKKPGASVKVSCKVSGYTLTELSMQWVRQAPGKGLEWMGGFDPDAGETMYAEKFQGRLTVTEDTSTDTVYMELRSLTSEDTALYFCATSPGYDFFDYWGQGTLVTVSSASTKGPSVFPLAPSSKSTSGGTAALGCLVKDYFPEPVTVSWNSGALTSGVHTFPAVLQSSGLYSLSSVVTVPSSSLGTQTYICNVNHKPSNTKVDKRV[omitted - human IgG1 Fc with changes]
light: B1 light with Q16K, S25D, D26N, D29S, E30K, I31S, A77V, Q78E, S94N, H96L
B6: 182 (antibody)
heavy: EVQLVQSGAEVKKPGASVKVSCKVSGYTLTELSMQWVRQAPGKGLEWMGGFDPDSGETMYAEKFQGRLTVTEDTSTDTVYMELRSLTSEDTALYFCATSPGYDFFDYWGQGTLVTVSSASTKGPSVFPLAPSSKSTSGGTAALGCLVKDYFPEPVTVSWNSGALTSGVHTFPAVLQSSGLYSLSSVVTVPSSSLGTQTYICNVNHKPSNTKVDKRV[omitted - human IgG1 Fc with changes]
light: B1 light with A77V, Q78E
B7: 125 (antibody)
heavy: EVQLVQSGAEVKKPGASVKVSCKVSGYTLTELSMQWVRQAPGKGLEWMGGFDPDAGETMYAEKFQGRLTVTEDTSTDTVYMELRSLTSEDTALYFCATSPGYDFFDYWGQGTLVTVSSASTKGPSVFPLAPSSKSTSGGTAALGCLVKDYFPEPVTVSWNSGALTSGVHTFPAVLQSSGLYSLSSVVTVPSSSLGTQTYICNVNHKPSNTKVDKRV[omitted - human IgG1 Fc with changes]
light: SYELTQPPSVSVAPGKTARITCGGDNIGSKSVHWYQQKPGQAPVLVVYDDSDRPSGIPERFSGSNSGNTATLTINRVEAGDEADYYCQVWDSSNDLLIFGGGTKLTVLGQPKAAPSVTLFPPSSEELQANKATLVCLISDFYPGAVTVAWKADSSPVKAGVETTTPSKQSNNKYAASSYLSLTPEQWKSHRSYSCQVTHEGSTVEKTVAPTECS
B8: 137 (antibody)
heavy: EVQLVQSGAEVKKPGASVKVSCKVSGYTLTELSMQWVRQAPGKGLEWMGGFDPDEGETMYAEKFQGRLTVTEDTSTDTVYMELRSLTSEDTALYFCATSPGYDFFDYWGQGTLVTVSSASTKGPSVFPLAPSSKSTSGGTAALGCLVKDYFPEPVTVSWNSGALTSGVHTFPAVLQSSGLYSLSSVVTVPSSSLGTQTYICNVNHKPSNTKVDKRV[omitted - human IgG1 Fc with changes]
light: B7 light with E3V, N75S
B9: 72 (antibody)
heavy: EVQLVQSGAEVKKPGASVKVSCKVSGYTLTELSMQWVRQAPGKGLEWMGGFDPDSGETMYAEKFQGRLTVTEDTSTDTVYMELSSLRSEDTAVYFCATSPGYDFFDYWGQGTLVTVSSASTKGPSVFPLAPSSKSTSGGTAALGCLVKDYFPEPVTVSWNSGALTSGVHTFPAVLQSSGLYSLSSVVTVPSSSLGTQTYICNVNHKPSNTKVDKRV[omitted - human IgG1 Fc with changes]
light: SYVLTQPPSVSVAPGKTARITCTGTSSDVGGYNYVSWYQQKPGQAPVLVVYEVSNRPSGIPERFSGSNSGNTATLTISRVEAGDEADYYCQVWDSSNDLLIFGGGTKLTVLGQPKAAPSVTLFPPSSEELQANKATLVCLISDFYPGAVTVAWKADSSPVKAGVETTTPSKQSNNKYAASSYLSLTPEQWKSHRSYSCQVTHEGSTVEKTVAPTECS
B10: 177 (antibody)
heavy: EVQLVQSGAEVKKPGASVKVSCKVSGYTLTELSMQWVRQAPGKGLEWMGGFDPDSGETMYAEKFQGRLTVTEDTSTDTVYMELSSLRSEDTAVYFCATSPGYDFFDYWGQGTLVTVSSASTKGPSVFPLAPSSKSTSGGTAALGCLVKDYFPEPVTVSWNSGALTSGVHTFPAVLQSSGLYSLSSVVTVPSSSLGTQTYICNVNHKPSNTKVDKRV[omitted - human IgG1 Fc with changes]
light: B1 light
B11: 141 (antibody)
heavy: EVQLVQSGAEVKKPGASVKVSCKVSGYTLTELSMQWVRQAPGKGLEWMGGFDPDSGETMYAEKFQGRLTVTEDTSTDTVYMELSSLRSEDTAVYFCATSPGYDFFDYWGQGTLVTVSSASTKGPSVFPLAPSSKSTSGGTAALGCLVKDYFPEPVTVSWNSGALTSGVHTFPAVLQSSGLYSLSSVVTVPSSSLGTQTYICNVNHKPSNTKVDKRV[omitted - human IgG1 Fc with changes]
light: B7 light with E3V, N75S
B12: 78 (antibody)
heavy: EVQLVQSGAEVKKPGASVKVSCKVSGYTLTELSMQWVRQAPGKGLEWMGGFDPDEGETMYAEKFQGRLTVTEDTSTDTVYMELRSLTSEDTALYFCATSPGYDFFDYWGQGTLVTVSSASTKGPSVFPLAPSSKSTSGGTAALGCLVKDYFPEPVTVSWNSGALTSGVHTFPAVLQSSGLYSLSSVVTVPSSSLGTQTYICNVNHKPSNTKVDKRV[omitted - human IgG1 Fc with changes]
light: B7 light with E3V, D25N, N75S
B13: 130 (antibody)
heavy: EVQLVQSGAEVKKPGASVKVSCKVSGYTLTELSMQWVRQAPGKGLEWMGGFDPDAGETMYAEKFQGRLTVTEDTSTDTVYMELSSLRSEDTAVYFCATSPGYDFFDYWGQGTLVTVSSASTKGPSVFPLAPSSKSTSGGTAALGCLVKDYFPEPVTVSWNSGALTSGVHTFPAVLQSSGLYSLSSVVTVPSSSLGTQTYICNVNHKPSNTKVDKRV[omitted - human IgG1 Fc with changes]
light: B7 light
B14: 186 (antibody)
heavy: EVQLVQSGAEVKKPGASVKVSCKVSGYTLTELSMQWVRQAPGKGLEWMGGFDPDAGETMYAEKFQGRLTVTEDTSTDTVYMELSSLRSEDTAVYFCATSPGYDFFDYWGQGTLVTVSSASTKGPSVFPLAPSSKSTSGGTAALGCLVKDYFPEPVTVSWNSGALTSGVHTFPAVLQSSGLYSLSSVVTVPSSSLGTQTYICNVNHKPSNTKVDKRV[omitted - human IgG1 Fc with changes]
light: B1 light with A77V, Q78E

These molecules were tested against T1, recombinant MBP-mutCALR Type 1 fusion protein (Homo sapiens, UniProt P27797, DEL40-40) (assay: Biacore SPR binding kinetics, Experiment 2 (parental and variant antibodies)). Conditions: Biacore 8K, 25° C., 1:1 binding model.
T1 construct: His6 (N); purchased Cepter (cepterbiopartners.com), custom made
Method: The amino acid sequence of recombinant MBP-mutCALR Type 1 fusion protein used in Experiments 1 and 2 is:
Experiment 2: Recombinant MBP-mutCALR Type 1 fusion protein was custom made at Cepter (cepterbiopartners.com). Data for the interaction of antibodies with recombinant mutCALR protein were collected at 25° C. on a Biacore 8K instrument (Cytiva, Marlborough, Mass.), and all reagents were obtained from Cytiva unless otherwise specified. The experiments were conducted using Tris-buffered saline (pH 7.2), 0.005% Surfactant P20, 1 mM CaCl2) as running buffer. To prepare the capture surfaces, anti-human IgG (Fc) antibodies (Product #29234600) was amine-coupled onto a CM4 chip (Product #BR100534) under standard conditions using an Amine Coupling Kit (Product #BR100050). Anti-mutCALR antibodies were captured onto the chip surface by injecting over flow cell 2 only at a flow rate of 10 μL/min for 30 seconds. […] Recombinant MBP-mutCALR Type 1 fusion protein was prepared at nominal concentrations of 0, 0.75, 2.22, 6.67, 20, and 60 nM and injected over both flow cells 1 and 2 for 150 seconds at a flow rate of 69 L/min, followed by a 230-second dissociation phase at the same flow rate. The kinetics parameters were obtained by applying 1:1 binding model to fit the data from multiple-cycle injection experiments using Biacore Insight Evaluation software.

| ka | kd | Molecule |
| --- | --- | --- |
| 1.12e+06 M⁻¹ s⁻¹ | 0.0025 s⁻¹ | B1 |
| 1e+07 M⁻¹ s⁻¹ | 0.0209 s⁻¹ | B2 |
| 756000 M⁻¹ s⁻¹ | 0.00507 s⁻¹ | B3 |
| 1.19e+06 M⁻¹ s⁻¹ | 0.00269 s⁻¹ | B4 |
| 991000 M⁻¹ s⁻¹ | 0.00512 s⁻¹ | B5 |
| 5.62e+06 M⁻¹ s⁻¹ | 0.00692 s⁻¹ | B6 |
| 3.23e+06 M⁻¹ s⁻¹ | 0.0154 s⁻¹ | B7 |
| 7.51e+06 M⁻¹ s⁻¹ | 0.0095 s⁻¹ | B8 |
| 1.02e+06 M⁻¹ s⁻¹ | 0.00382 s⁻¹ | B9 |
| 3.7e+06 M⁻¹ s⁻¹ | 0.00549 s⁻¹ | B10 |
| 4.18e+06 M⁻¹ s⁻¹ | 0.0187 s⁻¹ | B11 |
| 873000 M⁻¹ s⁻¹ | 0.0024 s⁻¹ | B12 |
| 1.08e+06 M⁻¹ s⁻¹ | 0.00509 s⁻¹ | B13 |
| 848000 M⁻¹ s⁻¹ | 0.00243 s⁻¹ | B14 |
